# Measured values published in PubChem BioAssay AID1508623 (National Center for Advancing Translational Sciences (NCATS), 2021).
# Among all 48,000 compounds or so, about 450 (0.94%) were called active. Inconclusive results (about 19%) are left out. The call rests on the fitted dose curve; in most records, active means well fitted inhibition curve with a large enough effect; inconclusive means small, poorly fitted or top-dose-only effect; inactive means no such curve, though single readings can be large or run the other way. Some of the results follow.
# Assay: Primary qHTS for Identification of Small Molecule Inhibitors of Huntingtin Promoter Activity; further: nearly all actives have a fitted effect of over 50% in size
# Details: HEK293 HTT promoter firefly luciferase reporter (activity 0% = vehicle and -100% = no light), 24 h; series mostly up to 57.5 µM; activity change, negative = inhibition: at the top concentration
# In short: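 HEK293 Fluc reporter, 2,500 cells/well, 24 h pre-culture; cpds up to 57.5 uM final, 24 h 37 degrees C; Dual-Glo, 10 min RT; normalized vehicle = 0%, zero RLU = -100%.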
# Potency means the concentration at half of the fitted maximal effect.
SMILES,"activity change, negative = inhibition",Potency
CCN(C(=O)c1cc2c(=O)oc3ccc(C)cc3c2s1)c1ccccc1F,inactive: -0.911%,–
CCOc1ccccc1NC(c1nnc(-c2ccccc2)o1)c1ccc(F)cc1Cl (stereo not given),inactive: -26.6%,–
CCN(CC)CCCN(c1ccccc1)C1Cc2ccccc2C1,inactive: -16.3%,–
CCOc1ccc(-c2oc3cc(Cl)ccc3c(=O)c2O)cc1OC,inactive: 7.75%,–
COc1ccc(C2CC(=O)N(Cc3ccccc3)c3c2c(C)nn3-c2nc(C)cc(C)n2)c(OC)c1 (stereo not given),inactive: -14%,–
CCC(=O)N1CCc2cc(Br)cc(S(=O)(=O)CCC(=O)NCCc3ccccc3)c21,inactive: -2.41%,–
CCc1ccccc1NC(=O)Cn1cc2c(n1)CCC(C)C2 (stereo not given),inactive: -15.7%,–
CCc1ccc(NS(=O)(=O)c2ccc3[nH]cc(C(=O)N(C)Cc4ccco4)c(=O)c3c2)cc1,inactive: 4.03%,–
CC(C)CN(CCNC(=O)c1cn(C)c2ccc(S(=O)(=O)N3CCCC3)cc2c1=O)CC(C)C,inactive: -8.09%,–
CCCN(C(=O)CCNC(=O)Cn1cnc2ccccc2c1=O)c1cccc(C)c1,inactive: -3.46%,–
CCOC(=O)c1ccc2[nH]c(CSc3nnc(-c4cccc(F)c4)n3C)cc(=O)c2c1,inactive: 1.65%,–
Cc1ccc(-n2nc(C(=O)N3CCN(c4cccc(C(F)(F)F)c4)CC3)c3c4ccccc4n(C)c3c2=O)cc1,inactive: -13.7%,–
Cc1ccc(C)c(-c2[nH]c3c(c2-c2c(-n4cccc4)n(C)c(=O)n(C)c2=O)c(=O)n(C)c(=O)n3C)c1,inactive: -13%,–
CCOc1cc(C2c3c(oc4ccccc4c3=O)C(=O)N2c2ccccn2)ccc1O (stereo not given),inactive: -13.1%,–
CCOC(=O)c1c(NC(=O)c2cc(Cl)ccc2Cl)sc2c1CCCC2,inactive: -10.3%,–
COc1ccc(OC)c(NC(=O)c2cc(=O)c3c(C)cc(C)cc3o2)c1,inactive: -11.5% [at 11.5 µM],–
Cc1ccc(CNc2cc(C)nc3nc(-c4cccc(C)c4)nn23)cc1,inactive: -22.5%,–
Cc1cn2c(=O)c(S(=O)(=O)NCc3ccccc3Cl)c(C)nc2s1,inactive: -0.467%,–
Cc1cc(C)n(CCc2nc3c4ccccc4nc(N4CCN(c5ccc(F)cc5)CC4)n3n2)n1,inactive: -6.01%,–
CCN(C(=O)CSc1nc2ccccc2n1CC(=O)Nc1ccc(F)cc1F)c1ccccc1,inactive: -34.3%,–
COc1ccc(-c2ccc(CCC(=O)O)n2-c2ccc(Cl)cc2C)cc1,inactive: -16.1%,–
CCOC(=O)c1cccc(NC(=O)CCc2c(C)nn(-c3ccc(N4CCOCC4)nn3)c2C)c1,inactive: -1.55%,–
CCc1ccc(-n2nc(CO)c(C(=O)NCc3ccccc3OC)n2)cc1,inactive: 4.83%,–
COCCCn1c(=O)c2sccc2n2c(CCCC(=O)NCc3ccc(F)cc3)nnc12,inactive: -14.6%,–

SMILES,"activity change, negative = inhibition",Potency
Cc1ccc2[nH]c3c(=O)n(CC(=O)NCCc4ccc(Cl)cc4)ncc3c2c1,inactive: 7.23%,–
COc1ccc(NC(=O)C2CCN(c3cnccn3)CC2)cc1Cl,inactive: -20.5%,–
CCn1cc(S(=O)(=O)c2cccc(C)c2)c(=O)c2cc(F)c(N3CCN(c4ccccc4)CC3)cc21,inactive: -26.6%,–
CCCCSc1nnc2c(n1)OC(C)N(C(C)=O)c1ccccc1-2 (stereo not given),inactive: -3.77% [at 11.5 µM],–
CCc1ccccc1NC(=O)CC1Sc2ccc(C(F)(F)F)cc2NC1=O (stereo not given),inactive: -8.2%,–
COc1ccc(CCNC(=O)C2COc3ccccc3C2)cc1OC (stereo not given),inactive: -16.6%,–
COc1ccc(CCNC(=O)Cc2c(C)c3cc4c(C)coc4c(C)c3oc2=O)cc1,inactive: -8.63%,–
Cn1c(Oc2ccc(Cl)cc2)nc2c1c(=O)n(Cc1ccc(F)cc1)c(=O)n2C,inactive: -4.49%,–
CC(=O)C1=C(O)C=C2Oc3c(C(C)=O)c(O)c(C)c(O)c3C2(C)C1=O (stereo not given),inactive: 0.475%,–
O=C(NCCc1ccccc1)c1ccc2c(c1)N(Cc1ccc(F)cc1)C(=O)c1ccccc1S2,inactive: 11.6%,–
COc1ccc(C(=O)NC(c2ccc(Cl)cc2)c2cc(Cl)c3cccnc3c2O)cc1 (stereo not given),–,active: 17.8 µM
CCCCN(CC)C(=O)c1cc2c(=O)n3cccc(C)c3nc2s1,inactive: 16.4%,–
COc1cc(Cl)c(C)cc1NC(=O)c1cnc(N2CCOCC2)c2ccccc12,inactive: -2.18%,–
Cc1cccn2c(=O)c3cc(C(=O)Nc4ccc(Cl)c(Cl)c4)sc3nc12,inactive: 2.94%,–
Cc1ccc(Nc2ccc(N3CCN(C(=O)c4ccc([N+](=O)[O-])cc4)CC3)nn2)cc1,inactive: -7.3%,–
Cn1c(SCc2ccc(Br)cc2)nc2c([nH]c3ccccc32)c1=O,inactive: -14.3%,–
O=C(c1ccc(Nc2nc3ccccc3n3nnnc23)cc1)N1CCN(c2cccc(C(F)(F)F)c2)CC1,inactive: -8.44%,–
CCOC(=O)c1cccc(NS(=O)(=O)c2cc3c(cc2C)NC(=O)CO3)c1,inactive: -19.6%,–
Cc1ccc(NC(=O)CN2C(=O)CC(C)Sc3ccccc32)c(C)c1 (stereo not given),inactive: -14%,–
Cc1ccc(C)c(NS(=O)(=O)c2cc3c4c(c2)C(C)C(=O)N4CCC3)c1 (stereo not given),inactive: -14.2%,–
CCNC(=O)Cn1nc(C)n2c(cc3c(OC)cccc32)c1=O,inactive: -0.966%,–
Cc1c(Cl)cccc1-n1ncc(C(=O)N2CCOCC2)c1C1CCN(C(=O)OC(C)(C)C)CC1,inactive: -18.9%,–
Cc1cc(C)n(C(C)CC(=O)NCc2ccc(Cl)cc2)n1 (stereo not given),inactive: -1.88%,–
Cc1ccc(OCC(=O)OCc2cc(=O)n3nc(C4CC4)sc3n2)cc1,inactive: -22%,–

SMILES,"activity change, negative = inhibition",Potency
COCCCNC(=O)C1CCN(c2cc(C)nc3c(-c4ccc(Cl)cc4)c(C)nn23)CC1,inactive: -7.81%,–
CCN(CC)CCCNC(=O)c1ccc2c(Cl)c3c(nc2c1)CCCC3,inactive: -8.38%,–
CCOC(=O)Cn1c(=O)n(-c2ccccc2OC)c2nc(-c3ccc(C(C)C)cc3)nc(C(N)=O)c21,inactive: -7.57%,–
CC(C)CC1Nc2ccc(C(=O)NCCCOC(C)C)cc2NC1=O (stereo not given),inactive: -17.1%,–
CCCNC(=O)CSc1nc(-c2ccc(OC)cc2)cc(C(F)(F)F)n1,inactive: -0.01%,–
COc1ccccc1N1CCN(CC(O)COc2cc(OC)c(OC)c(OC)c2)CC1 (stereo not given),inactive: 12%,–
CNCC[C@@H](Oc1ccccc1C)c1ccccc1,inactive: 1.69%,–
COc1ccc2c(CNCc3cccs3)c(C(=O)O)n(Cc3ccccc3F)c2c1,inactive: -14.5%,–
COc1ccc(CC(=O)N2CCc3cc(OC)c(OC)cc3C2COc2ccc(F)cc2)cc1OC (stereo not given),inactive: -17.2%,–
CN(C)c1ccc(NC(=O)CSC2=Nc3ccccc3C3=NC(CCC(=O)NCc4cccs4)C(=O)N23)cc1 (stereo not given),inactive: -27.4%,–
Cc1ccc(C(=O)C(C)CN2CCCCC2)cc1 (stereo not given),inactive: 4.38%,–
Cn1c(SCC(=O)Nc2nc3ccccc3s2)ncc(C(=O)Nc2ccc(F)cc2)c1=O,inactive: 9.26%,–
COc1cccc(C(=O)Nc2cccc(C(=O)OCc3cc(=O)n4c(C)csc4n3)c2)c1,inactive: -17.1%,–
Cc1c(C(=O)NC(C)c2ccccc2)sc2nc3n(c(=O)c12)CCCC3 (stereo not given),inactive: 37.5%,–
NS(=O)(=O)c1ccc2nc(NC(=O)COc3ccc(Cl)cc3Cl)sc2c1,inactive: -8.95%,–
CCOC(=O)COc1ccc(C)cc1C(=O)c1ccn2nc(-c3ccc(F)cc3)cc2n1,inactive: -10.6%,–
CC1CCN(C(=O)c2cccc(NC(=O)c3nsc4ccccc34)c2)CC1,inactive: 38.6%,–
COc1ccccc1Cc1nc2ccccc2nc1SCC(=O)NCc1ccccc1Cl,inactive: -2.61%,–
CN1CCc2nc3sc(C(=O)Nc4ccccc4C(F)(F)F)c(N)c3cc2C1,inactive: -12.1%,–
CCCC1=Nc2cc(C(=O)N3CCC(C)CC3)ccc2Sc2ccc(C)cc21,inactive: -12.9%,–
Cc1ccc2c(=O)c(C(=O)c3cccc(Cl)c3)cn(CC(=O)Nc3ccccc3C(F)(F)F)c2n1,inactive: -4.56%,–
COc1ccccc1C(=O)OCc1cc(=O)n2nc(C(C)C)sc2n1,inactive: -1.34%,–
CCOC(=O)CC(=O)CSc1nc2ccccc2c(=O)n1CCc1ccc(S(N)(=O)=O)cc1,inactive: -20.7%,–
CC1CCCCN1CCCNC(=O)c1cc(Sc2ccc(Cl)cc2)nc2ccccc12 (stereo not given),inactive: -12.3%,–

SMILES,"activity change, negative = inhibition",Potency
COc1ccc(-c2noc(-c3ccc(NCC4CCCO4)c([N+](=O)[O-])c3)n2)cc1OC (stereo not given),inactive: -3.98%,–
COc1ccccc1CNC(=O)c1oc2ccc3c(c2c1C)C(=O)CC(C)(C)O3,inactive: -2.89%,–
CC(=O)Nc1ccc(NC(=O)CCS(=O)(=O)c2ccc3c(c2)CC(=O)N3C)cc1,inactive: -8.28%,–
CCOC(=O)C1CCC(CN(Cc2cccc(Br)c2)S(=O)(=O)c2ccc(Cl)cc2)CC1 (stereo not given),inactive: -25.5%,–
CCOC(=O)N1CCc2c(sc3c2C(=O)NC(c2ccccc2F)N3)C1 (stereo not given),inactive: -13.6%,–
COc1ccc(N2CC(NC(=O)COc3ccc4ccccc4c3)CC2=O)cc1OC (stereo not given),inactive: -15.5%,–
CCN1C(=O)C(Cc2nc3ccccc3c(=O)n2-c2ccc(OC)cc2)c2ccccc21 (stereo not given),inactive: 7.95%,–
Cc1ccc(-n2c(=O)c3c4c(sc3n(CC(=O)Nc3ccccc3C)c2=O)CCCCC4)cc1C,inactive: -9.24%,–
COc1ccccc1CNc1nccn(-c2ccccc2)c1=O,inactive: 9.16%,–
CCC(C)NC(=O)c1sc2nc(C)c(C(=O)Nc3ccc(C)cc3C)c(-c3ccccc3Cl)c2c1N (stereo not given),inactive: -26.7%,–
CCOC(=O)c1cccc2c1N[C@@H](c1ccc(F)cc1)[C@H]1CC=C[C@@H]21,inactive: -15.7%,–
Cn1cc(S(=O)(=O)N2CCCCC2)cc1C(=O)Nc1cccc(C#N)c1,inactive: -14.2%,–
Cc1ccc(CNC(=O)Cn2c(=O)n(Cc3ccc(F)cc3)c(=O)c3sc4ccccc4c32)cc1,inactive: -12.3%,–
O=C(Nc1ccc(Cl)cc1)N1CCC(c2ccccc2)C1 (stereo not given),inactive: 41.6%,–
O=C(CCCCC(=O)Nc1c(I)cc(I)c(C(=O)O)c1I)Nc1c(I)cc(I)c(C(=O)O)c1I,inactive: -2.91%,–
CCCN(C(=O)Cn1ncc2c([nH]c3ccc(C)cc32)c1=O)c1ccccc1C,inactive: 0.885%,–
COc1cccc(N2CC(NC(=O)/C=C\c3ccc(OC)c(OC)c3)CC2=O)c1 (stereo not given),inactive: 1.08%,–
CCOc1ccccc1NC(=O)c1c(NCc2sccc2C)sc2c1CCC(C)C2 (stereo not given),inactive: -2.03%,–
CCC(C)NC(=O)CN1C(=O)COc2ccc(S(=O)(=O)N3CCOCC3)cc21 (stereo not given),inactive: -6.49%,–
O=C(O)c1ccc2c(c1)N(Cc1ccc(F)cc1Cl)C(=O)c1ccccc1S2,inactive: -17.4%,–
COc1ccc(NC(=O)CCS(=O)(=O)c2nc(-c3ccc4c(c3)OCO4)cc(C(F)(F)F)n2)c(OC)c1,inactive: -6.11%,–
CC(CNC(=O)CCCn1c(=O)c2cccn2c2ccccc21)c1ccccc1 (stereo not given),inactive: -11.5%,–
CC(C)N(Cc1ccccc1)C(=O)CN1C(=O)COc2ccc(S(=O)(=O)N3CCCCCC3)cc21,inactive: -14.4%,–
